Laboratory results taken from paper PMC4336329 (PLoS ONE, 2015).
Hit rate of the full screen: of about 310,000 compounds, about 14,000 (4.5%) showed an effect of 50% or more. Effects have a minus sign here. The list shows a part of the results.

What follows are compounds tested against human ether-à-go-go-related gene (hERG) potassium channel (human, UniProt Q12809) (assay: primary screen, population patch clamp on CHO cells stably expressing hERG).
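Note: peak tail current of the secondary pulse compared with the same well before compound.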

Chain of human ether-à-go-go-related gene (hERG) potassium channel (Q12809 whole entry, looked up): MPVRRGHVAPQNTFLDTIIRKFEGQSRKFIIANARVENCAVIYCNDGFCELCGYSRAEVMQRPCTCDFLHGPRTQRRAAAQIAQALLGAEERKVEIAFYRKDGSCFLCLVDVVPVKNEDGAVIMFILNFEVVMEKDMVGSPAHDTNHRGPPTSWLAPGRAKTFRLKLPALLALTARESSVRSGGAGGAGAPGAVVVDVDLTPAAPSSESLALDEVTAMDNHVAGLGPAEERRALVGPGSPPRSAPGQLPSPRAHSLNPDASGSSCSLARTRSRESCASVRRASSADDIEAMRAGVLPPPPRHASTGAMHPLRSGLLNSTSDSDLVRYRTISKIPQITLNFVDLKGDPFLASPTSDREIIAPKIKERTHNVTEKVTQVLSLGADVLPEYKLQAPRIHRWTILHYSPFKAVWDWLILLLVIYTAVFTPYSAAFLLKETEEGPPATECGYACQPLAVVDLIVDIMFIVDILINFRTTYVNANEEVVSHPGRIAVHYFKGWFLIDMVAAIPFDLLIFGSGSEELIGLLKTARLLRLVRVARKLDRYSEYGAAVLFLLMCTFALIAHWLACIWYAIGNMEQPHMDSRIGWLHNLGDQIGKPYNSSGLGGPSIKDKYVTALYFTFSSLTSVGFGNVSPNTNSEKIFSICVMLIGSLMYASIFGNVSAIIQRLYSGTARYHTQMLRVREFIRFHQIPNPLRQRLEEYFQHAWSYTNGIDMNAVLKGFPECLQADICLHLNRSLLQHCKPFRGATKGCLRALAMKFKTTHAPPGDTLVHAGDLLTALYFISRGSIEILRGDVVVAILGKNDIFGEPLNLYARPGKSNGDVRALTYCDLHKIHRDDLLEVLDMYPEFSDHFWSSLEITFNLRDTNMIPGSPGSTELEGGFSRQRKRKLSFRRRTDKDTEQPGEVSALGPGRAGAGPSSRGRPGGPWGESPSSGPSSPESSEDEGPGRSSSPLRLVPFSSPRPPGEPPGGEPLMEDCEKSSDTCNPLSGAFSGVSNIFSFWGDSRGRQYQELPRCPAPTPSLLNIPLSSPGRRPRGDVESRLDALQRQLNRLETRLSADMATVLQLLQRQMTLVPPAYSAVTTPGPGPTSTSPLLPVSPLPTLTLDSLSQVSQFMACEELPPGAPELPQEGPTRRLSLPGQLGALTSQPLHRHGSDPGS

Question: For CC(C)(C)NC(=O)[C@H]1CC[C@H]2[C@@H]3CC[C@H]4NC(=O)C=C[C@]4(C)[C@H]3CC[C@]12C, which “hERG current change (%, negative = inhibition) at 10uM” value is on record?
Answer: -7.77%

Question: C=CCn1c(SCC(=O)c2ccc(Cl)cc2)nnc1-c1ccc2c(c1)OCO2 was tested. Which “hERG current change (%, negative = inhibition) at 10uM” value did it give?
Answer: -37.5%

Question: For COc1ccc(NC(=O)CCNC(C)=O)cc1NS(=O)(=O)c1ccc(F)cc1, which “hERG current change (%, negative = inhibition) at 10uM” value is on record?
Answer: 0.12%

Question: Which “hERG current change (%, negative = inhibition) at 10uM” value does the source give for Cc1ccc(-c2csc(NC(=O)Cn3cnc4c3c(=O)n(C)c(=O)n4C)n2)cc1C here?
Answer: -8.92%

Question: Which “hERG current change (%, negative = inhibition) at 10uM” value does the source give for C=CCn1c(CCn2c3ccccc3c3ccccc32)n[nH]c1=S here?
Answer: 49.1%

Question: Which “hERG current change (%, negative = inhibition) at 10uM” value does the source give for Cc1cc2oc(=O)cc(CN3CCC(C)CC3)c2c(C)c1Cl here?
Answer: -2.84%

Question: How did the “hERG current change (%, negative = inhibition) at 10uM” value turn out when CCOC(=O)C1(CCOc2ccccc2)CCN(Cc2ccc(C)s2)CC1 was run?
Answer: -89.8%

Question: O=C(CSc1ccc(F)cc1)NCCSc1ccccc1 was tested. Which “hERG current change (%, negative = inhibition) at 10uM” value did it give?
Answer: -22.1%

Question: With O=C(CNC(=O)c1cccc(Br)c1)N/N=C/c1ccc2c(c1)OCO2 as the compound, how does the “hERG current change (%, negative = inhibition) at 10uM” value read?
Answer: 21.6%

Question: Which “hERG current change (%, negative = inhibition) at 10uM” value does the source give for COc1ccc(-c2csc(NC(=O)c3c(OC)cccc3OC)n2)cc1 here?
Answer: 7.77%

Question: Which “hERG current change (%, negative = inhibition) at 10uM” value does the source give for CCc1c(O)nc(SCC(=O)N(CC)CC)[nH]c1=O here?
Answer: 12%

Question: Which “hERG current change (%, negative = inhibition) at 10uM” value does the source give for Cc1cccc(C)c1OCc1nnc(SCC(=O)Nc2ccc(N3CCOCC3)cc2)o1 here?
Answer: 17.9%

Question: How did the “hERG current change (%, negative = inhibition) at 10uM” value turn out when Cc1ccccc1NC(=O)CCN1CCN(C/C=C/c2ccccc2)CC1 was run?
Answer: -78.9%

Question: For COc1cc(NC(=O)CCc2c(C)nn(-c3ccc(N4CCOCC4)nn3)c2C)cc(OC)c1OC, which “hERG current change (%, negative = inhibition) at 10uM” value is on record?
Answer: 8.82%

Question: With Cc1cc(C)c2nc(SCc3ccc([N+](=O)[O-])cc3)nc(C)c2c1 as the compound, how does the “hERG current change (%, negative = inhibition) at 10uM” value read?
Answer: 4.5%

Question: How did the “hERG current change (%, negative = inhibition) at 10uM” value turn out when O=C(Nc1ccc2c(c1)OCCO2)C1CCCN(S(=O)(=O)c2cccc3nsnc23)C1 (stereo not drawn) was run?
Answer: 4.93%

Question: Cc1cc(SCC(=O)Nc2ccccc2)nc(C)n1 was tested. Which “hERG current change (%, negative = inhibition) at 10uM” value did it give?
Answer: 2.58%

Question: COc1ccccc1NS(=O)(=O)c1ccc(Cl)c(NC(=O)c2sc3cc(Cl)ccc3c2Cl)c1 was tested. Which “hERG current change (%, negative = inhibition) at 10uM” value did it give?
Answer: 22.1%

Question: Which “hERG current change (%, negative = inhibition) at 10uM” value does the source give for N#Cc1ccccc1CSc1nc2ncc(Br)cc2[nH]1 here?
Answer: 5.22%

Question: Which “hERG current change (%, negative = inhibition) at 10uM” value does the source give for COc1cc2c(cc1OC)C(COc1ccc([N+](=O)[O-])cc1)NCC2 (stereo not drawn) here?
Answer: -76.6%

Question: Which “hERG current change (%, negative = inhibition) at 10uM” value does the source give for Cc1cc(C)n(-c2nc3ccccc3c3nc(C)nn23)n1 here?
Answer: 2.9%

Question: How did the “hERG current change (%, negative = inhibition) at 10uM” value turn out when COc1ccc(OCCC(=O)NCc2ccccc2)cc1 was run?
Answer: 2.89%

Question: With Cc1ccc(CNC(=O)C2CCCN(Cc3cnn(-c4ccccc4)c3-n3cccc3)C2)cc1 (stereo not drawn) as the compound, how does the “hERG current change (%, negative = inhibition) at 10uM” value read?
Answer: -65.3%

Question: Which “hERG current change (%, negative = inhibition) at 10uM” value does the source give for CCOC(=O)c1oc2cc(O)ccc2c(=O)c1-c1csc(C)n1 here?
Answer: 9.39%

Question: With CCOc1ccc(-n2c(C)nc3cc(C(=O)NCc4ccc5c(c4)OCO5)ccc32)cc1 as the compound, how does the “hERG current change (%, negative = inhibition) at 10uM” value read?
Answer: -33.5%

Question: Which “hERG current change (%, negative = inhibition) at 10uM” value does the source give for COCc1cc(=O)n2[nH]cc(-c3ccsc3)c2n1 here?
Answer: 3.74%

Question: With COC(=O)C1CCN(CC(=O)N(C)c2c(N)n(Cc3ccccc3)c(=O)[nH]c2=O)CC1 as the compound, how does the “hERG current change (%, negative = inhibition) at 10uM” value read?
Answer: -21.2%

Question: For FC(F)(F)COc1cc(-c2nnc(SCc3ccccc3)n2Cc2ccco2)cc(OCC(F)(F)F)n1, which “hERG current change (%, negative = inhibition) at 10uM” value is on record?
Answer: 6.57%

Question: For CCc1cc(Cn2nc(-c3ccccc3)cc2C(=O)NCc2cccs2)on1, which “hERG current change (%, negative = inhibition) at 10uM” value is on record?
Answer: -16.9%

Question: Which “hERG current change (%, negative = inhibition) at 10uM” value does the source give for O=C(CC1C(=O)NCCN1Cc1ccccc1)NCCCOc1cccnc1 (stereo not drawn) here?
Answer: 12%

Question: For Nc1nnc(Cc2ccccc2)s1, which “hERG current change (%, negative = inhibition) at 10uM” value is on record?
Answer: -11.8%

Question: Which “hERG current change (%, negative = inhibition) at 10uM” value does the source give for COc1cccc(Cn2c(NCc3ccco3)nc3c2c(=O)n(C)c(=O)n3C)c1 here?
Answer: -22.2%

Question: For O=C(c1ccc(Br)s1)N1CCCC1, which “hERG current change (%, negative = inhibition) at 10uM” value is on record?
Answer: -5.86%

Question: O=C(CCC(=O)c1cccs1)OCc1nnc(-c2ccccc2)o1 was tested. Which “hERG current change (%, negative = inhibition) at 10uM” value did it give?
Answer: -2.42%

Question: For CC(C)(C)SCCNC(=O)/C=C/c1ccc([N+](=O)[O-])cc1, which “hERG current change (%, negative = inhibition) at 10uM” value is on record?
Answer: -44.7%

Question: With Cc1cc(F)ccc1NC(=S)NCCc1ccccc1 as the compound, how does the “hERG current change (%, negative = inhibition) at 10uM” value read?
Answer: 20.9%

Question: With CCOC(=O)c1c(NC(=O)CCC(=O)O)sc2c1CC(C)(C)OC2 as the compound, how does the “hERG current change (%, negative = inhibition) at 10uM” value read?
Answer: 15.7%

Question: For CC(C)Cn1c(C(C)C)nc([N+](=O)[O-])c1Sc1ccc(Cl)cn1, which “hERG current change (%, negative = inhibition) at 10uM” value is on record?
Answer: -6.57%

Question: Which “hERG current change (%, negative = inhibition) at 10uM” value does the source give for COc1ccc(CCC(=O)Nc2nc(-c3ccncc3)cs2)cc1 here?
Answer: 6.7%

Question: CCCc1[nH][nH]c(=O)c1C(c1cccc(Cl)c1)C(C#N)C#N (stereo not drawn) was tested. Which “hERG current change (%, negative = inhibition) at 10uM” value did it give?
Answer: 6.29%

Question: For CCCN=C(C)c1c(-c2ccccc2)[nH]n(-c2nc3ccccc3s2)c1=O, which “hERG current change (%, negative = inhibition) at 10uM” value is on record?
Answer: -7.79%

Question: CC(c1ccon1)N(C)C(=O)CCc1nnc(C2(c3ccc(Cl)cc3)CCC2)o1 (stereo not drawn) was tested. Which “hERG current change (%, negative = inhibition) at 10uM” value did it give?
Answer: -3.05%

Question: For NC(=O)c1ccc(NCCCN2CCOCC2)c([N+](=O)[O-])c1, which “hERG current change (%, negative = inhibition) at 10uM” value is on record?
Answer: 1.65%

Question: With CC(NC(=O)COc1ccccc1-c1ccccc1)c1ccccc1 (stereo not drawn) as the compound, how does the “hERG current change (%, negative = inhibition) at 10uM” value read?
Answer: -0.046%

Question: Which “hERG current change (%, negative = inhibition) at 10uM” value does the source give for Cc1cc(C)c(S(C)(=O)=O)c(Oc2ccc(C(C)(C)C)cc2)n1 here?
Answer: -17.6%
